{"sequences": {"note": "Protein sequences, listed by entry. Tags and fused reporters are not part of them.", "UniProt Q96E09": "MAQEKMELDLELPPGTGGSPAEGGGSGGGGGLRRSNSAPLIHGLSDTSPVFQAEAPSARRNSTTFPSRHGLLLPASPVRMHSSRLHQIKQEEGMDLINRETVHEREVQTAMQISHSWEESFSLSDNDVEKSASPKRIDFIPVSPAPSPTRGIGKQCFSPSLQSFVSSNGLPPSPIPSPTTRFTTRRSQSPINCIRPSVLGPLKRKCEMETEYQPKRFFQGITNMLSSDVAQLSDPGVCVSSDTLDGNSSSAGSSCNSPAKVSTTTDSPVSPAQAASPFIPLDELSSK", "UniProt Q15172": "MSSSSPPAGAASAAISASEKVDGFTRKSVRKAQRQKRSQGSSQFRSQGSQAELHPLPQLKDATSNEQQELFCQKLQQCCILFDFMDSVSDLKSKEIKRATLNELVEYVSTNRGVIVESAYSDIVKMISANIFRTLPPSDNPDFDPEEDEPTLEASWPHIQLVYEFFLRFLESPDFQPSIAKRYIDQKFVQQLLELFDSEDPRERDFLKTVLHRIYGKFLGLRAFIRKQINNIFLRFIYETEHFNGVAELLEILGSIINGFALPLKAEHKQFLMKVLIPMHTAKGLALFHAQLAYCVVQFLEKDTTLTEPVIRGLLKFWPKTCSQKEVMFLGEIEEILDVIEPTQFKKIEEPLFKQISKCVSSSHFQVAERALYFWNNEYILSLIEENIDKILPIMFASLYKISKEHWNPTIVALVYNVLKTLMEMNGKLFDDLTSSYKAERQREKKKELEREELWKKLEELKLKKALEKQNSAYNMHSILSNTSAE", "UniProt P30153": "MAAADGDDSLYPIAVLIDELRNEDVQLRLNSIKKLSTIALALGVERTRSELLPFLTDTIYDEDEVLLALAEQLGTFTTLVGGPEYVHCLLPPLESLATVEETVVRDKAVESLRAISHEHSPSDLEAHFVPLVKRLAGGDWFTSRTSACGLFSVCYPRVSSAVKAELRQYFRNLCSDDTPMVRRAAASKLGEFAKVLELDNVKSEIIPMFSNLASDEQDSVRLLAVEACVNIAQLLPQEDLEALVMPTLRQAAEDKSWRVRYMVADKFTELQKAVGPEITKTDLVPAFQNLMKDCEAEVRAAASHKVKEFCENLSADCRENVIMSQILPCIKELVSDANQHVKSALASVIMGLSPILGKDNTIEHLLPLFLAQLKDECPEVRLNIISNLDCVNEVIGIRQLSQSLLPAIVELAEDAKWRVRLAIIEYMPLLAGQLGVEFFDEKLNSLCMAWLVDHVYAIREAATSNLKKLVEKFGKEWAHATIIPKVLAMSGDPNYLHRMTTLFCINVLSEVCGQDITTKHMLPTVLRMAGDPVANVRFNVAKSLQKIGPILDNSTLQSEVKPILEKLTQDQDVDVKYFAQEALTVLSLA"}, "source": "paper PMC5325411", "key": {"GFP-tagged FAM122A [1]": {"biological_target": "GFP-tagged FAM122A (UniProt Q96E09)", "test": "co-IP; 293T transiently co-transfected with GFP-FAM122A or empty vector and a Flag-tagged PP2A subunit; IP with anti-GFP, 48 h after transfection; 50 mM Tris-HCl pH 7.6, 150 mM NaCl, 1 mM EDTA, 1% NP-40; 4°C overnight"}, "Flag-tagged PP2A-B56α": {"biological_target": "Flag-tagged PP2A-B56α (UniProt Q15172)", "test": "co-IP; reciprocal: 293T transiently co-transfected with a Flag-tagged PP2A subunit or empty vector and GFP-FAM122A; IP with anti-Flag M2 affinity gel; 50 mM Tris-HCl pH 7.6, 150 mM NaCl, 1 mM EDTA, 1% NP-40; 4°C overnight"}, "GST-tagged FAM122A": {"biological_target": "GST-tagged FAM122A (UniProt Q96E09)", "test": "pull-down; purified GST or GST-FAM122A incubated with His-tagged PP2A subunits expressed in E. coli BL21; GST pull-down, blot with anti-His and anti-GST; only the target purified"}, "Flag-tagged PP2A-Aα": {"biological_target": "Flag-tagged PP2A-Aα (UniProt P30153)", "test": "co-IP; 293T stably expressing FAM122A or empty vector, transiently transfected with Flag-PP2A-Aα; IP with Flag antibody, western blot"}, "GFP-tagged FAM122A [2]": {"biological_target": "GFP-tagged FAM122A (UniProt Q96E09)", "test": "co-IP; 293T transiently transfected with GFP-FAM122A or GFP; IP with anti-GFP antibody or non-specific IgG; endogenous PP2A subunits by western blot"}, "[3]": {"biological_target": "endogenous FAM122A (human (endogenous in 293T and Jurkat)) (UniProt Q96E09)", "test": "co-IP; untransfected 293T and Jurkat lysates; IP with anti-FAM122A antibody or non-specific IgG and protein A/G-agarose; endogenous PP2A subunits by western blot"}}, "note": "No constants are given. Whether binding was seen depends on the method and setting. In cells and extracts the contact can be indirect. Some results given as binding are weak or reduced against the parent protein; the word gives no strength.", "data": [{"substance": "Flag-tagged PP2A-B56α (from UniProt Q15172 1-486)", "values": [{"measurement": "binding", "setting": "GFP-tagged FAM122A [1]", "result": "no binding"}]}, {"substance": "GFP-tagged FAM122A (from UniProt Q96E09 1-287)", "values": [{"measurement": "binding", "setting": "Flag-tagged PP2A-B56α", "result": "no binding"}]}, {"substance": "His-tagged PP2A-B56α (from UniProt Q15172 1-486)", "values": [{"measurement": "binding", "setting": "GST-tagged FAM122A", "result": "no binding"}]}, {"substance": "endogenous PP2A-B56α (from UniProt Q15172 1-486)", "values": [{"measurement": "binding", "setting": "Flag-tagged PP2A-Aα", "result": "binds"}, {"measurement": "binding", "setting": "GFP-tagged FAM122A [2]", "result": "no binding"}, {"measurement": "binding", "setting": "[3]", "result": "no binding"}]}]}
